Data taken from US20250262316A1, “ANTIBODY-DRUG CONJUGATE AND APPLICATION THEREOF” (Bio-Thera Solutions, Ltd., priority 2021, published 2025).

Target: T1, hB7-H3-His (Homo sapiens, UniProt Q5ZPR3)
T1 construct: 10xHis (C); made in house; host or cells: HEK293F (transient transfection)
T1 sequence (Q5ZPR3 with tags, fused parts or gaps): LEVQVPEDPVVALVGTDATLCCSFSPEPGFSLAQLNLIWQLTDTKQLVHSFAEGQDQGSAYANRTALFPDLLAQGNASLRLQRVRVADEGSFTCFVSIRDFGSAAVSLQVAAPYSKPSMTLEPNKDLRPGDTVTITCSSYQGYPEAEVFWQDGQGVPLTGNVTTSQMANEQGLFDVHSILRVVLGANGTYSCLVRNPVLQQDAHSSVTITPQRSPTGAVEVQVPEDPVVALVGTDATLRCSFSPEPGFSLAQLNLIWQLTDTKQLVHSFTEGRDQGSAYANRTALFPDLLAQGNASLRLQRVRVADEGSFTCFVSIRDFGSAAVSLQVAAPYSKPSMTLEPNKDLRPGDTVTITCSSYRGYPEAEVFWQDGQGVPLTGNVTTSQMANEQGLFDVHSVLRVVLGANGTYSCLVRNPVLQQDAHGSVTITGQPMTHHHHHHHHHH
Test: BiaCore T200 affinity of chimeric antibodies for hB7-H3-His
Conditions: binding to hB7-H3-His, 1:1 kinetic model
Source text: Preparation of antigen hB7-H3-His: the gene sequence encoding the antigen hB7-H3-His (the amino acid sequence of the antigen hB7-H3-His is set forth in SEQ ID NO: 4 and is constructed by adding 10×HIS tag ([…], set forth in SEQ ID NO: 5) to the C-terminus of the human B7-H3 extracellular domain (set forth in SEQ ID NO: 2)) was cloned into an expression vector, which was then transiently transfected into HEK293F cells, and the antigen hB7-H3-His was obtained after purification with a nickel column,
Experiment results were analyzed using data analysis software Evaluation Software 3.1. The sensing signals acquired from the experiment flow channels for the samples were subjected to double subtraction (minus values of reference flow channels and blank control), and the fitting was performed using a “1:1” kinetic model to obtain the kinetic parameters (ka: association rate; kd: dissociation rate; kD: equilibrium dissociation constant) for the binding of each sample to hB7-H3-His.

- ka (association rate): 243700 M⁻¹ s⁻¹
- kd (dissociation rate): 0.0002403 s⁻¹
B1: M30-H1-L4: Control antibody; heavy chain SEQ ID NO: 30, light chain SEQ ID NO: 31 (antibody)
heavy: QVQLVQSGAEVKKPGSSVKVSCKASGYTFTNYVMHWVRQAPGQGLEWMGYINPYNDDVKYNEKFKGRVTITADESTSTAYMELSSLRSEDTAVYYCARWGYYGSPLYYFDYWGQGTLVTVSSASTKGPSVFPLAPSSKSTSGGTAALGCLVKDYFPEPVTVSWNSGALTSGVHTFPAVLQSSGLYSLSSVVTVPSSSLGTQTYICNVNHKPSNTKVDKRV[letters of human IgG1 Fc omitted]
light: EIVLTQSPATLSLSPGERATLSCRASSRLIYMHWYQQKPGQAPRPLIYATSNLASGIPARFSGSGSGTDFTLTISSLEPEDFAVYYCQQWNSNPPTFGQGTKVEIKRTVAAPSVFIFPPSDEQLKSGTASVVCLLNNFYPREAKVQWKVDNALQSGNSQESVTEQDSKDSTYSLSSTLTLSKADYEKHKVYACEVTHQGLSSPVTKSFNRGEC
